Assay results: PubChem BioAssay AID1476 (National Center for Advancing Translational Sciences (NCATS), 2009)
Several values for one entry are separate records, joined by “and”; a condition that tells them apart may be missing. Identical values can stand only once. Screen size: about 200,000 compounds; about 4,500 (2.2%) were called active. Inconclusive means that the source gave no clear call. Such entries were picked first, then a sample of the others. The call rests on the fitted dose curve; in most records, active means well fitted inhibition curve with a large enough effect; inconclusive means small, poorly fitted or top-dose-only effect, or effect the other way; inactive means flat fitted curve, though single readings scatter. Potencies of inconclusive entries are doubtful fits and often do not repeat.
Further: nearly all actives have a fitted effect of over 40% in size.
Potency means the concentration at half of the fitted maximal effect; tags describe the fitted curve by direction and shape.
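Wherever max response, negative = inhibition is given: plate controls were enzyme without inhibitor for no effect and buffer without enzyme for full effect.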

The compounds below were run against Cruzipain (Trypanosoma cruzi) (UniProt P25779) (assay: qHTS Assay for Promiscuous and Specific Inhibitors of Cruzain (without detergent)). Details: purified cruzain, Z-FR-AMC fluorescence, no detergent.
Sequence of UniProt P25779 (P25779 whole entry, looked up): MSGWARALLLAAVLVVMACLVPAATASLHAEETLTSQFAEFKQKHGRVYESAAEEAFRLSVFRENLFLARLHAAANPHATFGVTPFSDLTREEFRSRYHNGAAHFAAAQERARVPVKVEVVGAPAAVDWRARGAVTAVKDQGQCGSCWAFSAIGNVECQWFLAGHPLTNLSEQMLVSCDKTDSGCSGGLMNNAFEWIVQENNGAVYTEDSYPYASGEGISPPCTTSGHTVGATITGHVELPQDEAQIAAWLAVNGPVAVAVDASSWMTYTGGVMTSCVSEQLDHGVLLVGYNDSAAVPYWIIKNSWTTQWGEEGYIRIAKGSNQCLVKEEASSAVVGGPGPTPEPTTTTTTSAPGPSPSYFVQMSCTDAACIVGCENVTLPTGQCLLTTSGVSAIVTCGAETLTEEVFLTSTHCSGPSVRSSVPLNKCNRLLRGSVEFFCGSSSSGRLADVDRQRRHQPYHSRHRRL
Procedure, shortened: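 Detergent-free condition (0.00005% Triton X-100) in acetate buffer pH 5.5 with DTT. 1.5 nM enzyme and compound were pre-mixed 15 min, then 2 uM Z-FR-AMC substrate added; reaction progress from fluorescence change between first and third reads (60 s).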
COc1cc(/C=N/NC(=O)COc2ccc(Cl)cc2)ccc1OS(=O)(=O)c1ccc(C)cc1 was tested, and the Potency was inconclusive: 39.8 µM [inhibitor, single point]. In the case of Cc1ccc(S(=O)(=O)Nc2ccc(Cl)cc2)cc1NC(=O)c1cc2c(s1)CCCC2, the Potency was inconclusive: 39.8 µM [inhibitor, single point]. CCOC(=O)c1cccc(NC(=O)CC2C(=O)N(c3ccc(Cl)cc3)C(=O)N2C2CCCC2)c1 (stereo not given) was tested, and the max response, negative = inhibition was inactive: 4.17%. For Cc1cccc(-n2nnc(C(=O)NC3CCCc4ccccc43)c2N)c1 (stereo not given), the Potency was inconclusive: 39.8 µM [inhibitor, single point]. With CC[C@H](C)[C@@H](NC(=O)O[C@H]1C(=O)c2ccc(OC)cc2O[C@@H]1c1ccc2c(c1)OCO2)C(=O)OC the max response, negative = inhibition was inactive: -7.23% and inactive: -5.08%. With C[C@H]1CN(CCO)CCN1c1ccccc1 the Potency was inconclusive: 6.31 µM [activator, single point]. For CCNC(=O)O/N=C(\C)c1sc(-c2ccc(Cl)cc2)nc1C, the Potency was inconclusive: 31.6 µM [activator, single point]. With Cc1cccn2c(=O)c3cc(C#N)c(=N)n(Cc4ccncc4)c3nc12 the Potency was inconclusive: 39.8 µM [inhibitor, single point]. With Cc1ccccc1-n1nc(C)c2c1N=C1C(Cl)=CC(Cl)=CN1C2c1ccc(C(=O)O)cc1 (stereo not given) the Potency was inconclusive: 39.8 µM [activator, single point]. COc1cc(OC)c2c(-c3cccc(-c4ccc(N(C)C)cc4)c3)cc(=O)oc2c1 was tested, and the Potency was active: 31.6 µM. With IC(I)I the max response, negative = inhibition was inactive: -2.49%. With O=C(Nc1ccc(F)cc1)NC1(C(=O)NCc2cccs2)CCCCC1 the Potency was inconclusive: 39.8 µM [inhibitor, single point]. In the case of Cc1cc(NC(=O)Nc2nnc(N(C)C3CCCCC3)s2)ccc1Br, the Potency was inconclusive: 31.6 µM [activator, single point]. COc1ccc(C(=O)N2CCC(c3nc4ccccc4s3)CC2)cc1Cl was tested, and the Potency was inconclusive: 31.6 µM [activator, single point]. CC(=O)[C@H](CC(C)C)NC(=O)[C@@H](CC(C)C)NC(=O)[C@H](CC(C)C)NC(=O)OCc1ccccc1 was tested, and the Potency was active: 0.0126 µM. For Cc1ccc2oc(C(=O)Nc3ccc(S(=O)(=O)N(C)c4ccccc4)cc3)cc(=O)c2c1, the max response, negative = inhibition was inactive: 4.62%. In the case of Cc1ccc2nc(N3CCN(S(=O)(=O)c4ccc(C)c(Cl)c4)CC3)c(C#N)cc2c1, the Potency was inconclusive: 6.31 µM [inhibitor, full curve, poor fit]. CCCCCCCCCCCCCCCCOC[C@H](COP(=O)([O-])OCC[N+](C)(C)C)OC(C)=O was tested, and the Potency was inconclusive: 39.8 µM [activator, single point]. For Cc1ccc(S(=O)(=O)N/N=C/c2ccc(OCC(=O)Nc3ccccc3Cl)cc2)cc1, the Potency was active: 25.1 µM. For COc1ccccc1/C=C/c1nc(C#N)c(N2CCN(C)CC2)o1, the Potency was active: 25.1 µM. For CCC/C=C(\CCC)C(NS(=O)(=O)c1ccc(C(F)(F)F)cc1)c1ccc(-c2ccccc2)cc1 (stereo not given), the max response, negative = inhibition was inactive: -0.559%. With Cc1ccc(C(=O)COC(=O)CNC(=O)COc2ccccc2C)cc1C the Potency was inconclusive: 25.1 µM [inhibitor, single point]. For COc1ccc(/C=c2/sc3nc(-c4ccccc4)c(-c4ccccc4)n3c2=O)cc1, the Potency was active: 6.31 µM. For Cc1ccccc1NC(=O)c1ccccc1NC(=O)Cc1cccc2ccccc12, the Potency was inconclusive: 39.8 µM [inhibitor, single point]. For CC(=O)N1c2ccc(S(=O)(=O)NCC3CCC(C(=O)Nc4cc(C)cc(C)c4)CC3)cc2CC1C (stereo not given), the Potency was inconclusive: 39.8 µM [activator, single point]. With Cc1nn(-c2ccccc2Cl)c2sc(C(=O)Nc3nnc(C4CC4)s3)cc12 the Potency was inconclusive: 25.1 µM [inhibitor, single point]. CCc1ccc(S(=O)(=O)N(C(C)=O)c2ccc3oc4c(c3c2)CCCC4)cc1 was tested, and the max response, negative = inhibition was inactive: -8.2%. O=C(NCc1ccc2c(c1)OCO2)c1ccc(NS(=O)(=O)c2ccc3c(c2)OCCO3)cc1 was tested, and the Potency was inconclusive: 39.8 µM [inhibitor, single point]. For CCCOC(=O)c1c(NC(=O)C2CCCO2)sc(C(=O)OC)c1C (stereo not given), the Potency was inconclusive: 25.1 µM [activator, partial curve]. For CCc1ccc(C2NC(=S)NC3=C2C(=O)N(c2ccccc2OC)C(c2ccc(CC)cc2)N3)cc1 (stereo not given), the Potency was inconclusive: 39.8 µM [inhibitor, single point]. With C=CCn1c(SCC(=O)NC2CCS(=O)(=O)C2)nnc1-c1cc2c(s1)CCC(CC)C2 (stereo not given) the Potency was inconclusive: 39.8 µM [activator, single point]. With COC(=O)c1cccc(Nc2nc3ccccc3nc2C)c1 the Potency was inconclusive: 39.8 µM [activator, single point]. In the case of O=C(COc1ccc2c(C(F)(F)F)cc(=O)oc2c1)Nc1ccc2c(c1)OCCO2, the Potency was active: 7.94 µM. With Cc1nn(CCC(=O)O)c2nc(-c3cccnc3)cc(C(F)(F)F)c12 the Potency was inconclusive: 31.6 µM [activator, single point]. Fc1ccc(-c2csc3ncnc(N4CCc5ccccc5C4)c23)cc1 was tested, and the Potency was inconclusive: 25.1 µM [inhibitor, partial curve, poor fit]. In the case of Cc1cc(C)c(-c2csc(Cc3nc(-c4cc5ccccc5oc4=O)cs3)n2)cc1C, the Potency was active: 10 µM. With C/C(=N/Nc1cc(-c2ccccc2)nc(-c2ccccc2)n1)c1ccc(O)cc1 the Potency was inconclusive: 39.8 µM [inhibitor, single point]. CCOc1cccc(C(=O)Nc2nnc(-c3cccs3)s2)c1 was tested, and the Potency was active: 15.8 µM. For CCOCCCNC(=O)c1cn(C)c2ccc(S(=O)(=O)N(C)C3CCCCC3)cc2c1=O, the Potency was inconclusive: 31.6 µM [activator, single point]. For Cc1cc(SCC(=O)Nc2nsc(-c3ccc(C(C)(C)C)cc3)n2)nc2ccccc12, the Potency was inconclusive: 7.94 µM [inhibitor, partial curve].
